In the supplement of paper PMC12355420:
Where a name gives a salt, the structure may show the parent alone. The list shows a part of the results. No stated cut-off is given here; in the data, active = 0.5 or less and inactive = the rest. Most values come without repeats; read them as rough.

Tests used:
Settings in all cases: 50 µM; 24 h
[1] = tested on: HeLa VPS33A reporter cells; assay: relative cell viability (CellMask signal) vs DMSO (fraction of DMSO); higher = less cytotoxic;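 further: primary screen of an FDA-approved drug library in HeLa reporter cells in 96-well format, CellMask signal normalized to DMSO-treated wells set as 1, under 0.5 deemed highly cytotoxic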
[2] = tested on: HeLa VPS33A R498W KI + HA-SDC1-FLAG; assay: relative GAG core protein HA-SDC1 amount per cell number vs DMSO (fraction of DMSO); higher = more SDC1 (GAG core protein);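 further: HA-SDC1 level read out by In-Cell Western staining with an anti-HA antibody against the N-terminal tag, screening FDA-approved library drugs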
[3] = tested on: HeLa VPS33A KO + NLuc-VPS33A R498W; assay: relative mutant VPS33A R498W amount (NanoLuc luminescence) vs DMSO (fraction of DMSO); HeLa model of a glycosaminoglycan (GAG) storage disease; KI is knock-in and KO knock-out; SDC1 is syndecan 1; higher = higher mutant VPS33A level;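 further: screen of an FDA-approved drug library, NanoLuc luminescence read after lysing the treated cells, taken as a measure of mutant VPS33A protein stability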

SMILES | relative cell viability [1] | relative GAG core protein HA-SDC1 amount per cell number [2] | relative mutant VPS33A R498W amount [3]
CCN(Cc1ccncc1)C(=O)C(CO)c1ccccc1 (configuration not stated) [Tropicamide] | 1.02 | inactive: 0.713 | 1.21
Cc1ccc(C(=O)Nc2ccc(S(=O)(=O)O)c3cc(S(=O)(=O)O)cc(S(=O)(=O)O)c23)cc1NC(=O)c1cccc(NC(=O)Nc2cccc(C(=O)Nc3cc(C(=O)Nc4ccc(S(=O)(=O)O)c5cc(S(=O)(=O)O)cc(S(=O)(=O)O)c45)ccc3C)c2)c1 [Suramin hexasodium salt] | 1.36 | inactive: 0.608 | 0.966
CC[C@@]1(O)C(=O)OCc2c1cc1n(c2=O)Cc2cc3cc(O)ccc3nc2-1 [10-Hydroxycamptothecin] | 1.12 | inactive: 0.686 | 0.571
CC[C@@]1(O)C(=O)OCc2c1cc1n(c2=O)Cc2cc3c(CN(C)C)c(O)ccc3nc2-1 [Topotecan HCl] | 1.03 | inactive: 0.512 | 1.33
